# Data taken from the supplement of paper PMC12423691.
# The other results are listed elsewhere or left out. Binding of human transcription factors and regulators to the viral nucleoprotein by AlphaScreen, crude cell-free proteins, amounts not normalised, one pass. Fold of the Venus control; higher = more signal. No active / inactive call. Single-pass screen; sequences are the whole Swiss-Prot entries looked up by name.
# B1: ZFPM1, Q8IX07 (protein)
# chain: MSRRKQSNPRQIKRSLGDMEAREEVQLVGASHMEQKATAPEAPSPPSADVNSPPPLPPPTSPGGPKELEGQEPEPRPTEEEPGSPWSGPDELEPVVQDGQRRIRARLSLATGLSWGPFHGSVQTRASSPRQAEPSPALTLLLVDEACWLRTLPQALTEAEANTEIHRKDDALWCRVTKPVPAGGLLSVLLTAEPHSTPGHPVKKEPAEPTCPAPAHDLQLLPQQAGMASILATAVINKDVFPCKDCGIWYRSERNLQAHLLYYCASRQGTGSPAAAATDEKPKETYPNERVCPFPQCRKSCPSASSLEIHMRSHSGERPFVCLICLSAFTTKANCERHLKVHTDTLSGVCHSCGFISTTRDILYSHLVTNHMVCQPGSKGEIYSPGAGHPATKLPPDSLGSFQQQHTALQGPLASADLGLAPTPSPGLDRKALAEATNGEARAEPLAQNGGSSEPPAAPRSIKVEAVEEPEAAPILGPGEPGPQAPSRTPSPRSPAPARVKAELSSPTPGSSPVPGELGLAGALFLPQYVFGPDAAPPASEILAKMSELVHSRLQQGAGAGAGGAQTGLFPGAPKGATCFECEITFSNVNNYYVHKRLYCSGRRAPEDAPAARRPKAPPGPARAPPGQPAEPDAPRSSPGPGAREEGAGGAATPEDGAGGRGSEGSQSPGSSVDDAEDDPSRTLCEACNIRFSRHETYTVHKRYYCASRHDPPPRRPAAPPGPPGPAAPPAPSPAAPVRTRRRRKLYELHAAGAPPPPPPGHAPAPESPRPGSGSGSGPGLAPARSPGPAADGPIDLSKKPRRPLPGAPAPALADYHECTACRVSFHSLEAYLAHKKYSCPAAPPPGALGLPAAACPYCPPNGPVRGDLLEHFRLAHGLLLGAPLAGPGVEARTPADRGPSPAPAPAASPQPGSRGPRDGLGPEPQEPPPGPPPSPAAAPEAVPPPPAPPSYSDKGVQTPSKGTPAPLPNGNHRYCRLCNIKFSSLSTFIAHKKYYCSSHAAEHVK
# B2: ZNF584, Q8IVC4 (protein)
# chain: MAGEAEAQLDPSLQGLVMFEDVTVYFSREEWGLLNVTQKGLYRDVMLENFALVSSLGLAPSRSPVFTQLEDDEQSWVPSWVDVTPVSRAEARRGFGLDGLCRVEDERAHPEHLKSYRVIQHQDTHSEGKPRRHTEHGAAFPPGSSCGQQQEVHVAEKLFKCSDCGKVFLKAFALLDHLITHSEERPFRCPTGRSAFKKSAHINPRKIHTGETAHVCNECGKAFSYPSKLRKHQKVHTGIKPFKCSDCGKTFNRKDALVLHQRIHTGERPYECSKCGKTFSVLSTLIRHRKVHIGERPYECTECGKFFKYNNSFILHQRVHTGERPFECKQCGKGYVTRSGLYQHWKVHTGERPYECSLCGKTFTTRSYRNRHQQFHTEERSYECTECGKAFKHSSTLLQHKKVHTPERRQEDRAHGKVVSC
# B3: GATAD1, Q8WUU5 (protein)
# chain: MPLGLKPTCSVCKTTSSSMWKKGAQGEILCHHCTGRGGAGSGGAGSGAAGGTGGSGGGGFGAATFASTSATPPQSNGGGGGKQSKQEIHRRSARLRNTKYKSAPAAEKKVSTKGKGRRHIFKLKNPIKAPESVSTIITAESIFYKGVYYQIGDVVSVIDEQDGKPYYAQIRGFIQDQYCEKSAALTWLIPTLSSPRDQFDPASYIIGPEEDLPRKMEYLEFVCHAPSEYFKSRSSPFPTVPTRPEKGYIWTHVGPTPAITIKESVANHL
# B4: HDAC4, P56524 (protein)
# chain: MSSQSHPDGLSGRDQPVELLNPARVNHMPSTVDVATALPLQVAPSAVPMDLRLDHQFSLPVAEPALREQQLQQELLALKQKQQIQRQILIAEFQRQHEQLSRQHEAQLHEHIKQQQEMLAMKHQQELLEHQRKLERHRQEQELEKQHREQKLQQLKNKEKGKESAVASTEVKMKLQEFVLNKKKALAHRNLNHCISSDPRYWYGKTQHSSLDQSSPPQSGVSTSYNHPVLGMYDAKDDFPLRKTASEPNLKLRSRLKQKVAERRSSPLLRRKDGPVVTALKKRPLDVTDSACSSAPGSGPSSPNNSSGSVSAENGIAPAVPSIPAETSLAHRLVAREGSAAPLPLYTSPSLPNITLGLPATGPSAGTAGQQDAERLTLPALQQRLSLFPGTHLTPYLSTSPLERDGGAAHSPLLQHMVLLEQPPAQAPLVTGLGALPLHAQSLVGADRVSPSIHKLRQHRPLGRTQSAPLPQNAQALQHLVIQQQHQQFLEKHKQQFQQQQLQMNKIIPKPSEPARQPESHPEETEEELREHQALLDEPYLDRLPGQKEAHAQAGVQVKQEPIESDEEEAEPPREVEPGQRQPSEQELLFRQQALLLEQQRIHQLRNYQASMEAAGIPVSFGGHRPLSRAQSSPASATFPVSVQEPPTKPRFTTGLVYDTLMLKHQCTCGSSSSHPEHAGRIQSIWSRLQETGLRGKCECIRGRKATLEELQTVHSEAHTLLYGTNPLNRQKLDSKKLLGSLASVFVRLPCGGVGVDSDTIWNEVHSAGAARLAVGCVVELVFKVATGELKNGFAVVRPPGHHAEESTPMGFCYFNSVAVAAKLLQQRLSVSKILIVDWDVHHGNGTQQAFYSDPSVLYMSLHRYDDGNFFPGSGAPDEVGTGPGVGFNVNMAFTGGLDPPMGDAEYLAAFRTVVMPIASEFAPDVVLVSSGFDAVEGHPTPLGGYNLSARCFGYLTKQLMGLAGGRIVLALEGGHDLTAICDASEACVSALLGNELDPLPEKVLQQRPNANAVRSMEKVMEIHSKYWRCLQRTTSTAGRSLIEAQTCENEEAETVTAMASLSVGVKPAEKRPDEEPMEEEPPL
# B5: NFKB1, P19838 (protein)
# chain: MAEDDPYLGRPEQMFHLDPSLTHTIFNPEVFQPQMALPTDGPYLQILEQPKQRGFRFRYVCEGPSHGGLPGASSEKNKKSYPQVKICNYVGPAKVIVQLVTNGKNIHLHAHSLVGKHCEDGICTVTAGPKDMVVGFANLGILHVTKKKVFETLEARMTEACIRGYNPGLLVHPDLAYLQAEGGGDRQLGDREKELIRQAALQQTKEMDLSVVRLMFTAFLPDSTGSFTRRLEPVVSDAIYDSKAPNASNLKIVRMDRTAGCVTGGEEIYLLCDKVQKDDIQIRFYEEEENGGVWEGFGDFSPTDVHRQFAIVFKTPKYKDINITKPASVFVQLRRKSDLETSEPKPFLYYPEIKDKEEVQRKRQKLMPNFSDSFGGGSGAGAGGGGMFGSGGGGGGTGSTGPGYSFPHYGFPTYGGITFHPGTTKSNAGMKHGTMDTESKKDPEGCDKSDDKNTVNLFGKVIETTEQDQEPSEATVGNGEVTLTYATGTKEESAGVQDNLFLEKAMQLAKRHANALFDYAVTGDVKMLLAVQRHLTAVQDENGDSVLHLAIIHLHSQLVRDLLEVTSGLISDDIINMRNDLYQTPLHLAVITKQEDVVEDLLRAGADLSLLDRLGNSVLHLAAKEGHDKVLSILLKHKKAALLLDHPNGDGLNAIHLAMMSNSLPCLLLLVAAGADVNAQEQKSGRTALHLAVEHDNISLAGCLLLEGDAHVDSTTYDGTTPLHIAAGRGSTRLAALLKAAGADPLVENFEPLYDLDDSWENAGEDEGVVPGTTPLDMATSWQVFDILNGKPYEPEFTSDDLLAQGDMKQLAEDVKLQLYKLLEIPDPDKNWATLAQKLGLGILNNAFRLSPAPSKTLMDNYEVSGGTVRELVEALRQMGYTEAIEVIQAASSPVKTTSQAHSLPLSPASTRQQIDELRDSDSVCDSGVETSFRKLSFTESLTSGASLLTLNKMPHDYGQEGPLEGKI
# Biological target: nucleoprotein N of Crimean-Congo hemorrhagic fever virus
# Experiment: AlphaScreen luminescence signal relative to Venus negative control (fold); higher = stronger binding to CCHFV N
# Protocol: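 AlphaScreen binding of cell-free made, FLAG-GST-tagged human transcription factors and regulators (crude translation products) to biotinylated N protein; signal as fold of the FLAG-GST-Venus control. One pass.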
row,Binder,AlphaScreen luminescence signal
1,B1,2.51
2,B2,1.72
3,B3,3.77
4,B4,3.02
5,B5,1.35
